One experiment addresses T1, Human ENTPD1 (Homo sapiens, UniProt P49961).
T1 construct: expressed in transfected cells; host or cells: NIH/3T3 (retroviral transduction, FACS-sorted)
T1 sequence (P49961 1-510): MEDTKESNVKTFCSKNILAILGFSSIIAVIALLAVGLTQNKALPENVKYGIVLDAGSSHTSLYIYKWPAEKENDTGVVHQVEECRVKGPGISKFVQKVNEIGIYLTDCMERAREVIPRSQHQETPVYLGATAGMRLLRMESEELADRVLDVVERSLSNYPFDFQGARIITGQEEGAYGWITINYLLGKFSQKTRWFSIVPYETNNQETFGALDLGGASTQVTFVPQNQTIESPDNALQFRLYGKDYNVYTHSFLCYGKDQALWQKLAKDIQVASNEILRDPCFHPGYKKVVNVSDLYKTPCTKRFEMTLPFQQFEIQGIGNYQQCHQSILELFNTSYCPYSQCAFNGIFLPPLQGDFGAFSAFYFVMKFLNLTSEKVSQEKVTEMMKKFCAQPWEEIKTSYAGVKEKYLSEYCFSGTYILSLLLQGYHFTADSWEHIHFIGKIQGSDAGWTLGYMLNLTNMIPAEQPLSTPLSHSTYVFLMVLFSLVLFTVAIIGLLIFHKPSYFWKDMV
Description: Cross reactivity: FACS binding to human ENTPD1 expressing NIH/3T3 cells. The conditions noted are these: NIH/3T3-ENTPD1 cells; for Apparent FACS binding at 50 nM: 50 nM antibody. The procedure: (§1) FACS screening: Specific binding of candidate antibodies to endogenously expressed ENTPD2 was assessed by flow cytometry. Cells were rinsed thoroughly with 1×PBS and treated with Accutase (Millipore #SCR005) to lift from growth plates and resuspended at approximately 1×10^5 cells/90 μL in 1× FACS buffer (2% FBS+0.1% NaN3 in PBS). In a 96-well U-bottom plate, 10 μL of 10× antibody solution in FACS buffer was pre-seeded and 90 μL of cell suspension was added. Cell were incubated for 30 minutes at 4° C., washed 1× with cold PBS and resuspended in 100 μL of 1:500 secondary antibody 1× FACS buffer (Allophycocyanin conjugated F(ab′)2 goat anti-human IgG, Fcγ specific; Jackson Immunoresearch, Cat#109-136-098). After additional incubation for 15 min at 4° C., cells were washed twice with PBS and resuspended in 100 μL of 1×FACS buffer with 4 μg/mL propidium iodide (Life Technologies, Cat#P3566). Geometric mean fluorescence intensity was calculated on live single cells using FlowJo software.
(§2) Cross reactivity Human ENTPD1 (NP_001767) expressing NIH/3T3 cells were generated using a retroviral transduction approach. 72 hrs post transduction, engineered cells were stained with the anti-Human CD39/ENTPD1 APC-conjugated Antibody (R&D systems, Minneapolis, Minn.) and live cells that expressed human ENTPD1 were separated from the rest of the population via fluorescence activated cell sorting. Stable expression of ENTPD1 was periodically re-confirmed by FACS with the above described anti-Human CD39/ENTPD1 APC-conjugated Antibody (1:100).
(In flow cytometry, cells or beads pass a laser one at a time.)

In another experiment the test system is H520 cells. In words: Cross reactivity: FACS binding to H520 cells (ENTPD3 and ENTPD8 expression). The conditions noted are these: 50 nM antibody. Also noted: species or system human. The procedure:
as §1
H520 cells were identified as a cancer cell line with ENTPD3 (Ct 25) and ENTPD8 (Ct 26) expression by Taqman and were used for selectivity screening.

Another experiment deals with NIH/3T3 cells. In words: Cross reactivity: FACS binding to NIH/3T3 control cells. The conditions noted are these: 50 nM antibody. The procedure:
as §1, §2

Bounds are passed on as bounds.

B1: ANTI-HUMAN ENTPD2 MAB9 (antibody)
heavy: QVQLVQSGAEVKKPGSSVKVSCKASGGTFDSYAVSWVRQAPGQGLEWMGRIVPWLGHTQYAQKFQGRVTITADESTSTAYMELSSLRSEDTAVYYCARESPGYRYSFDVWDQGTLVTVSSASTKGPSVFPLAPSSKSTSGGTAALGCLVKDYFPEPVTVSWNSGALTSGVHTFPAVLQSSGLYSLSSVVTVPSSSLGTQTYICNVNHKPSNTKVDKRV[here human IgG1 Fc without letters]
light: SYELTQPLSVSVALGQTARITCSGDAIGEKYVYWYQQKPGQAPVLVIYDDNNRPSGIPERFSGSNSGNTATLTISRAQAGDEADYYCASYDLQQARWVFGGGTKLTVLGQPKAAPSVTLFPPSSEELQANKATLVCLISDFYPGAVTVAWKADSSPVKAGVETTTPSKQSNNKYAASSYLSLTPEQWKSHRSYSCQVTHEGSTVEKTVAPTECS
In the case of B1, the “Apparent FACS binding at 50 nM” value in the experiment with Human ENTPD1, in the experiment on H520 cells and with NIH/3T3 cells was “No binding” in each case.

B2: ANTI-HUMAN ENTPD2 MAB10 (antibody)
heavy: QVQLVQSGAEVKKPGSSVKVSCKASGGTFDSYAVSWVRQAPGQGLEWMGRIVPWLGFTRYAQKFQGRVTITADESTSTAYMELSSLRSEDTAVYYCARESPGYRYSFDVWDQGTLVTVSSASTKGPSVFPLAPSSKSTSGGTAALGCLVKDYFPEPVTVSWNSGALTSGVHTFPAVLQSSGLYSLSSVVTVPSSSLGTQTYICNVNHKPSNTKVDKRV[here human IgG1 Fc without letters]
light: SYELTQPLSVSVALGQTARITCSGDAIGEKYVYWYQQKPGQAPVLVIYDDNNRPSGIPERFSGSNSGNTATLTISRAQAGDEADYYCASYDLQQARWVFGGGTKLTVLGQPKAAPSVTLFPPSSEELQANKATLVCLISDFYPGAVTVAWKADSSPVKAGVETTTPSKQSNNKYAASSYLSLTPEQWKSHRSYSCQVTHEGSTVEKTVAPTECS
For the molecule B2, the “Apparent FACS binding at 50 nM” value with Human ENTPD1, in the experiment with H520 cells and in the experiment on NIH/3T3 cells was “No binding” each time.

B3: ANTI-HUMAN ENTPD2 MAB8 (antibody)
heavy: QVQLQQSGPGLVKPSQTLSLTCAISGDSVSSSSAAWNWIRQSPSRGLEWLGRIYYRSKWYNDYAVSVKSRITINPDTSKNQFSLQLNSVTPEDTAVYYCARGSYVTSSYEGFDYWGQGTLVTVSSASTKGPSVFPLAPSSKSTSGGTAALGCLVKDYFPEPVTVSWNSGALTSGVHTFPAVLQSSGLYSLSSVVTVPSSSLGTQTYICNVNHKPSNTKVDKRV[here human IgG1 Fc without letters]
light: SYELTQPLSVSVALGQTARITCSGDNLPEKYAYWYQQKPGQAPVLVIYDDNKRPSGIPERFSGSNSGNTATLTISRAQAGDEADYYCQSYGKWGWTWVFGGGTKLTVLGQPKAAPSVTLFPPSSEELQANKATLVCLISDFYPGAVTVAWKADSSPVKAGVETTTPSKQSNNKYAASSYLSLTPEQWKSHRSYSCQVTHEGSTVEKTVAPTECS
Take B3: the “Apparent FACS binding” value with Human ENTPD1 (cell printed as a bound in nM) is reported as more than 100 nM. The “Apparent FACS binding at 50 nM” value with H520 cells and with NIH/3T3 cells was “No binding” each time.

B4: ANTI-HUMAN ENTPD2 MAB3 (antibody)
heavy: QVQLVQSGAEVVKPGASVKISCKASGYTFTDYNMDWVKQAPGQRLEWIGDINPKYDISTYNQQFKGKATITVDTSASTAYMELSSLRSEDTAVYYCARRGFFLYYGINYYYFDVWGQGTLVTVSSASTKGPSVFPLAPSSKSTSGGTAALGCLVKDYFPEPVTVSWNSGALTSGVHTFPAVLQSSGLYSLSSVVTVPSSSLGTQTYICNVNHKPSNTKVDKRV[here human IgG1 Fc without letters]
light: EIVLTQSPATLSASPGERITLSCSASSSVSYIHWYQQKPGQAPRLLIYSTSNLASGIPARFSGSGSGTFYTLTISSVEPEDAAVYYCHQWSSYPWTFGGGTKLEIKRTVAAPSVFIFPPSDEQLKSGTASVVCLLNNFYPREAKVQWKVDNALQSGNSQESVTEQDSKDSTYSLSSTLTLSKADYEKHKVYACEVTHQGLSSPVTKSFNRGEC
Turning to B4, the “Apparent FACS binding at 50 nM” value with Human ENTPD1, in the experiment with H520 cells and in the experiment on NIH/3T3 cells was “No binding” in each case.

B5: ANTI-HUMAN ENTPD2 MAB2 (antibody)
heavy: QVQLVQSGAEVVKPGASVKISCKASGYTFTDYNMDWVKQAPGQRLEWIGDINPKYDISTYNQQFKGKATITVDKSASTAYMELSSLRSEDTAVYYCARRGFFLYYGINYYYFDVWGQGTLVTVSSASTKGPSVFPLAPSSKSTSGGTAALGCLVKDYFPEPVTVSWNSGALTSGVHTFPAVLQSSGLYSLSSVVTVPSSSLGTQTYICNVNHKPSNTKVDKRV[here human IgG1 Fc without letters]
light: EIVLTQSPATLSASPGERITLSCSASSSVSYIHWYQQKPGQAPRLLIYSTSNLASGIPARFSGSGSGTFYTLTISSVEPEDAAVYYCHQWSSYPWTFGGGTKLEIKRTVAAPSVFIFPPSDEQLKSGTASVVCLLNNFYPREAKVQWKVDNALQSGNSQESVTEQDSKDSTYSLSSTLTLSKADYEKHKVYACEVTHQGLSSPVTKSFNRGEC
Consider B5, for which the “Apparent FACS binding at 50 nM” value in the experiment with Human ENTPD1, in the experiment with H520 cells and with NIH/3T3 cells was “No binding” each time.

(Values after patent US20220348651A1, “ENTPD2 ANTIBODIES, COMBINATION THERAPIES, AND METHODS OF USING THE ANTIBODIES AND COMBINATION THERAPIES” (Novartis AG, priority 2019, published 2022).)
